According to the supplement of paper PMC10338343:
± gives the standard deviation. The list shows a part of the results, in another mix than the full data.

System: MIWI (PIWIL1) piRISC loaded with piRNA #1 (30 nt)
Experiment: pre-steady-state target cleavage rate (min^-1); MIWI and MILI are mouse PIWI proteins and EfPiwi is from a freshwater sponge; tags in brackets are library labels; higher = faster piRNA-guided slicing of the target
Conditions: guide: piRNA #1 5'p-UGAGGUAGUAGGUUGUAUAGUAUCCAGAGG; auxiliary factor: 500 nM mouse GTSF1
Outline: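 Reactions were run for 0–8 or 0–960 min at 33 °C in HEPES–potassium acetate buffer, combining 1 nM active affinity-purified piRISC with one synthetic guide, […] transcribed, DNA-blocked target RNA library and, in some cases, 500 nM GTSF1 partner protein. Sequencing of uncleaved targets followed, with normalisation to depth and to weakly complementary targets. Three trials were pooled, k3 was capped at 0.0001 min^-1, and the pre-steady-state cleavage rate was taken from a burst-and-steady-state fit.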
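Also: 1 nM active piRISC with 0.1 nM target library at 33 °C single turnover.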

With GCUCUGGAUACUUUACUACCUACUACCUCA as the sequence, how does the “pre-steady-state target cleavage rate” value read?
Its value is 1.36 ± 0.11.

With GGAGACCUAUGAAAACUACCUACUACCUCA as the sequence, how does the “pre-steady-state target cleavage rate” value read?
The value was under 0.0001.

GCUACUGGAUACUAUACAACCUACUACCUCA was tested. Which “pre-steady-state target cleavage rate” value did it give?
The value was 2.14 ± 0.13.

With GGAGUGGAUACUAUACAACCUAGUACCUCA as the sequence, how does the “pre-steady-state target cleavage rate” value read?
Its value is 0.37 ± 0.046.

With GGAGACCUUACUAUACAACCAUCUACCUCA as the sequence, how does the “pre-steady-state target cleavage rate” value read?
Its value is 0.0142 ± 0.0048.

Which “pre-steady-state target cleavage rate” value does the source give for GGAGACCUUACUAUACAACCUACUACGUGA here?
Its value is 0.675 ± 0.064.

Which “pre-steady-state target cleavage rate” value does the source give for GGAGAGAAUACUAUACAACCUACUACCUCA here?
The value was 1.79 ± 0.1.

Which “pre-steady-state target cleavage rate” value does the source give for GGUCUGGAUAACUAUACAACCUACUACCUCA here?
The value was 1.17 ± 0.084.

Which “pre-steady-state target cleavage rate” value does the source give for GGACUGGAUACAAUUCAACCUACUACCUCA here?
Its value is 1.22 ± 0.13.

Which “pre-steady-state target cleavage rate” value does the source give for GCUCUGGAUACAUAUACAACCUACUACCUCA here?
The value was 1.54 ± 0.083.

GGAGAGGAUACUAUACAAGCUACUAGCUCA was tested. Which “pre-steady-state target cleavage rate” value did it give?
Its value is 0.279 ± 0.045.

Which “pre-steady-state target cleavage rate” value does the source give for GGAGACGAUACAAUUCAACCUACUACCUCA here?
The value was 0.664 ± 0.073.

GGAGACCUAUGUAUACAACCUACUAGCCUCA was tested. Which “pre-steady-state target cleavage rate” value did it give?
Its value is 0.0396 ± 0.0073.

With GGAGACCAUACUAUACAAGCUACUUCCUCA as the sequence, how does the “pre-steady-state target cleavage rate” value read?
The value was 0.678 ± 0.038.

For GGAGAGGAUACUAUACAACCUUGUACCUCA, which “pre-steady-state target cleavage rate” value is on record?
The value was 0.0562 ± 0.01.

Which “pre-steady-state target cleavage rate” value does the source give for GGAGAGGAUACUAUACAACCUACUACCUUCA here?
The value was 1.14 ± 0.058.

Which “pre-steady-state target cleavage rate” value does the source give for GGACAGGAUACUAUACAACCUACAACCUCA here?
The value was 0.331 ± 0.037.

With GCUCUGGAAACUAUACAACGUACUACCUCA as the sequence, how does the “pre-steady-state target cleavage rate” value read?
The value was 1.26 ± 0.095.

How did the “pre-steady-state target cleavage rate” value turn out when GGAGACCUAUCCAUACAACCUACUACCUCA was run?
Its value is 0.251 ± 0.048.

With GGUCUGGAUACUUUACAACCUACAACCUCA as the sequence, how does the “pre-steady-state target cleavage rate” value read?
The value was 0.102 ± 0.02.

With GGAGACGAUACUUUUCAACCUACUACCUCA as the sequence, how does the “pre-steady-state target cleavage rate” value read?
The value was 0.957 ± 0.073.

With “GGAGACCAUACUAUACAACCUACUAGGAGA [g6:g23:cont:t1A]” as the sequence, how does the “pre-steady-state target cleavage rate” value read?
Its value is 0.0655 ± 0.019.

GCUCCGGAUACUAUACAACCUACUACCUCA was tested. Which “pre-steady-state target cleavage rate” value did it give?
The value was 1.81 ± 0.12.

GGAGUGGAUACUAUAGAACCUACUACGUCA was tested. Which “pre-steady-state target cleavage rate” value did it give?
The value was 0.0195 ± 0.005.

GGAGACCAUACUAUACAACCUAGUAGCUCA was tested. Which “pre-steady-state target cleavage rate” value did it give?
The value was 0.00871 ± 0.0042.

GGAGACCUAUGUAUACAAGCUACUACCUGA was tested. Which “pre-steady-state target cleavage rate” value did it give?
Its value is 0.0211 ± 0.0044.

For GGAGACCAUACUAUACAACCUACUUCCACA, which “pre-steady-state target cleavage rate” value is on record?
Its value is 0.324 ± 0.04.

For GGAGACCUUACUAUACAAGCUACUUCCUCA, which “pre-steady-state target cleavage rate” value is on record?
The value was 0.416 ± 0.033.

For GGAGACCUAACUAUACAUCCUACUACCACA, which “pre-steady-state target cleavage rate” value is on record?
The value was 0.449 ± 0.05.

For GCUCUGGUUACUAUACAACCUACUACGUCA, which “pre-steady-state target cleavage rate” value is on record?
Its value is 0.654 ± 0.071.

For GCUCUGGAUACUUUACAACCUAGUACCUCA, which “pre-steady-state target cleavage rate” value is on record?
The value was 0.458 ± 0.062.

With GGAGACGAUACUAAUCAACCUACUACCUCA as the sequence, how does the “pre-steady-state target cleavage rate” value read?
The value was 1.07 ± 0.075.

GGAGUGGAAACUAAACAACCUACUACCUCA was tested. Which “pre-steady-state target cleavage rate” value did it give?
Its value is 1.14 ± 0.082.

GGAGACGAUACUAUACAACCUAGUACCUCA was tested. Which “pre-steady-state target cleavage rate” value did it give?
The value was 0.564 ± 0.055.

With CCUCUGGAUACUAUUCAACCUACUACCUGA as the sequence, how does the “pre-steady-state target cleavage rate” value read?
The value was 0.698 ± 0.092.

How did the “pre-steady-state target cleavage rate” value turn out when GGAGACCUAACUAUACAAGCUACUAGCUCA was run?
The value was 0.259 ± 0.034.

GGAGUGGAUACUAUUCAACCUACUUCCUCA was tested. Which “pre-steady-state target cleavage rate” value did it give?
Its value is 0.00996 ± 0.0027.

With GCUCUGGAUACUAUACAACCUACUUCCUGA as the sequence, how does the “pre-steady-state target cleavage rate” value read?
Its value is 0.346 ± 0.057.

With GGAGACCUAUCUAUACAACCUACAACCACA as the sequence, how does the “pre-steady-state target cleavage rate” value read?
The value was 0.115 ± 0.019.

Which “pre-steady-state target cleavage rate” value does the source give for CCUCUGGAUACUAUAGAACCUACUAGCUCA here?
Its value is 0.0166 ± 0.0061.
